The values below come from patent US9321849B2, “Uranium-chelating peptides and uses thereof” (priority 2003, dated 2016).

Test [1] is described as follows: CD spectra with 8 equivalents of metal and ESI-MS, qualitative metal binding. As to conditions: 8 equivalents of metal, ESI-MS.
Assay in test [2]: as above
The settings on record: 8 equivalents of metal, ESI-MS. The source holds these as a separate data set.

Assay in test [3]: as above
As to conditions: 8 equivalents of metal, ESI-MS. The source holds these as a separate data set.

Test [4] in a line: Compared affinities in 1 mM phosphate medium pH 7 (Table III). The format is binding. As to conditions: values given in μM, read-out: Kd Tb^3.
A short description of test [5]: CD spectra with 8 equivalents of metal, qualitative metal binding. As for the experimental part:
(§1) The CD spectra were recorded with a CD6 device (Jobin Yvon) equipped with a thermostated cuvette holder and computer-controlled using the CDMax program. The compounds were solubilized at a concentration of 5 μM in a 1 mM MES buffer at pH 6.5.The spectra were recorded at ambient temperature between 180 nm and 250 nm using a cuvette with a 0.1 mm optical path. Each spectrum represents the mean of 4 successive accumulations obtained with an integration time of 0.5 s and a step of 0.5 nm. The spectra were smoothed using the algorithm included in the CDMax program.
The corresponding peptide CaM-M1c was synthesized and its affinity with respect to various metals was tested by mass spectrometry, circular dichroism (CD) and time-resolved fluorescence (TRLS).

Test [6] is described as follows: CD spectra with 8 equivalents of metal and ESI-MS, qualitative metal binding. The settings on record: 8 equivalents of metal, ESI-MS. The source holds these as a separate data set.
Assay in test [7]: as above
The settings on record: 8 equivalents of metal, ESI-MS. The source holds these as a separate data set.

Assay in test [8]: as above
As to conditions: 8 equivalents of metal, ESI-MS. This is another data set of the same source.

Test [9] can be described thus: Titration by CD with cadmium. Format: binding. As to conditions: aqueous medium at pH 6.5, read-out: Kd Cd (II). As for the experimental part:
as §1

A short description of test [10]: Titration by time-resolved laser fluorescence (TRLS) with europium. Format: binding. The settings on record: 10 mM MES buffer pH 6.5, emission 618 nm, read-out: Kd Eu (III).
Test [11] is described as follows: CD spectra with 8 equivalents of metal, qualitative metal binding. This is another data set of the same source.
Test [12] is described as follows: Titration by ESI-MS with calcium. Format: binding. The settings on record: read-out: dissociation constant Kd, calcium. The procedure:
The positive-detection-mode electrospray mass spectra were recorded with a Q-TOF II device (Micromass). The sample to be analyzed was introduced into the source via a syringe pump (Harvard Apparatus). Nitrogen was used as drying and collision gas with a source heated to 80° C. The cone voltage was 30 volts, and a high voltage of 3500 kV was applied to the capillary. The sample solution flow rate was fixed at 5 μL.min^−1. The spectra represent the mean of 40 scans recorded between 400 and 3000 m/z at a scan rate of 6 s/scan.

Test [13] can be described thus: CD spectra with 8 equivalents of metal and ESI-MS, qualitative metal binding. As to conditions: 8 equivalents of metal, ESI-MS. This is another data set of the same source.
Test [14] is described as follows: Compared affinities (Table III). The format is binding. The settings on record: value in μM; read-out: Kd Ca^2+.
Test [15] can be described thus: Titration by CD (dichroic signal at 222 nm) with calcium ions. The format is binding. The procedure:
as §1
The absence of a secondary structure was confirmed by proton nuclear magnetic resonance (1H NMR) spectroscopy. When dissolved calcium is added, the CD spectrum takes on a form that is typical of a helicoidal conformation with minima at 206 and 222 nm. A CaM1c titration by CD was then carried out and the intensity of the dichroic signal at 222 nm was reported as a function of the concentration of calcium ions added (FIG. 4).

The nature of test [16]: TRLS titration of uranyl nitrate with peptide in water at pH 6.5. The settings on record: read-out: Kd U (VI), species titrated UO2(OH)+, titration by TRLS, 2 μM uranyl nitrate in water.
Test [17] can be described thus: Compared affinities in 1 mM phosphate medium pH 7 (Table III). The format is binding. The settings on record: read-out: Kd (μM) UO2^2+.

With “EQIAEFKEAFALCDKDGDGYITTKELGTCMRSL [CaM-M1c]”, the “affinity / interaction with Ba” value in test [1] is reported as “No interaction”. Also, in test [2], the “affinity / interaction with europium” value was “good affinity”. Besides, the “affinity / interaction with Mg” value in test [3] is on record as “No interaction”. Also, the Kd in test [4] turned out to be 4 µM; in [9] it was 8 ± 4 µM; in test [10], 0.6 µM; in test [12], 30 µM; in test [14], 30 µM; in test [15] (CD titration at 222 nm, 10 mM MES pH 6.5, read-out: dissociation constant Kd, calcium), 30 µM. Further, the Kd in test [15] (aqueous medium at pH 6.5, titration by CD and by ESI/MS, read-out: Kd Ca (II)) was 30 ± 1 µM; in test [16], 4.7 ± 0.6 µM; in test [17], 6.8 µM. Moreover, the “affinity / interaction with cobalt” value in test [5] is given as “weak affinity”. In [6], the “affinity / interaction with Sr” value is recorded as “No interaction”. Also, the “affinity / interaction with uranium (uranyl)” value in [7] is on record as “good affinity”. Also, in test [8], the “affinity / interaction with calcium” value is given as “good affinity”. For the same sequence, in [11], the “affinity / interaction with cadmium” value is “good affinity”. Besides, the “affinity / interaction with terbium” value in [13] is “good affinity”.
